Experimental data published in PubChem BioAssay (NCATS).
Inconclusive results, whose numbers are uncertain, are shown with a selection of clear calls. Potencies of inconclusive entries are doubtful fits and often do not repeat. Calls of active or inactive are those of the source. Calls come from the whole dose curve; as a rule, active = well fitted inhibition curve with a large enough effect; inconclusive = small, poorly fitted or top-dose-only effect; inactive = no such curve, though single readings can be large or run the other way.

Each molecule was assayed against Retinaldehyde dehydrogenase 3 (Homo sapiens) (UniProt P47895) (assay: qHTS for Inhibitors of the Aldehyde Dehydrogenase Family (ALDH1A3) Primary screen (AID 2061315;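 for activity change, negative = inhibition: plate controls were DMSO vehicle for no effect and reference inhibitor for full effect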)). Conditions: ALDH inhibition qHTS; activity change, negative = inhibition: at 56 µM (top of the series) unless noted.
Potency is the fitted concentration of half-maximal effect; tags give direction and shape of the fitted curve.

SMILES | Potency | activity change, negative = inhibition
Cn1cc(CCn2cnc(-c3cnn(C)c3)c2-c2ccc(C#N)cc2)cn1 | inconclusive: 31.6 µM [inhibitor, single point] | 
CC(=O)Nc1cccc2c1c(Sc1ccc(Cl)cc1)c(C)n2CC(=O)O |  | inactive: -3.03%
C[C@@H](Oc1cc(-n2cnc3ccc(OC4CCN(C)CC4)cc32)sc1C(N)=O)c1ccccc1C(F)(F)F |  | inactive: -8.56%
CC[C@@H]1[C@H]2CCCCN3C(=O)C[C@H]([C@@H]4[C@H]1OC(=O)[C@H]4C)[C@@H]23 | inconclusive: 35.5 µM [inhibitor, single point] | 
N#Cc1cnc2c(Cl)cc(NCc3cn(CCN4CCCCCC4)nn3)cc2c1Nc1ccc(F)c(Cl)c1 | inconclusive: 7.94 µM [inhibitor, full curve] | 
O=C1NC(=O)C(c2cnc3ccccn23)=C1c1cn2c3c(cc(F)cc13)CN(C(=O)N1CCCCC1)CC2 |  | inactive: 8.74%
Cc1cn2c(N)c(Cl)cc(C(=O)NCC3CCN(CC(C)C)CC3)c2n1 |  | inactive: 2.36%
CC(=O)OC/C(=C/C(=O)O)CC[C@@H]1C(CO)=CC[C@@H]2C(C)(C)CCC[C@@]12C | inconclusive: 3.55 µM [inhibitor, partial curve, poor fit] | 
CNc1nc(Nc2ccc(C(=O)N3CCOCC3)cc2OC)nc2[nH]cc(Cl)c12 | inconclusive: 39.8 µM [inhibitor, single point] | 
C=C1C(=O)OC[C@@H]1C/C=C(\C)CC1CC(C)C(=O)O1 (stereo partly specified) | inconclusive: 20 µM [inhibitor, single point] | 
C=C(C)C(=O)OC1CC2(C)OC(=CC2=O)C(=C)CC2OC(=O)C(=C)C12 (stereo unspecified) |  | inactive: 12.7%
